From PubChem BioAssay AID504332 (National Center for Advancing Translational Sciences (NCATS), 2011)
Where “and” joins values, the source holds several entries; their conditions need not be identical. Equal values may be shown once. About 31,000 (8.9%) of roughly 350,000 compounds were called active. The shares of active, inactive and inconclusive entries below differ from those in the screen. Calls come from the whole dose curve; as a rule, active = well fitted inhibition curve with a large enough effect; inconclusive = small, poorly fitted or top-dose-only effect; inactive = no such curve, though single readings can be large or run the other way. Potencies of inconclusive entries are doubtful fits and often do not repeat.

target: Histone-lysine N-methyltransferase EHMT2 (Homo sapiens) (UniProt Q96KQ7); test: qHTS Assay for Inhibitors of Histone Lysine Methyltransferase G9a; conditions: G9a H3K9 monomethylation, AlphaScreen, 2 h; activity, negative = inhibition: at 59 µM (top of the series) unless noted; note: nearly all actives have a fitted effect of over 75% in size
Method in brief: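 G9a (20 nM) preincubated 15 min RT with compounds, then 500 nM biotinylated H3K9 peptide and 20 uM SAM added; 2 h RT reaction. Monomethyl-H3K9 product detected by AlphaScreen with anti-H3K9me1 antibody, streptavidin donor and anti-rabbit IgG acceptor beads.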
% is set by controls: 0 for no effect and ±100 for the full control effect; potency is the fitted concentration of half-maximal effect; tags give direction and shape of the fitted curve.

Chain of UniProt Q96KQ7 (Q96KQ7 whole entry, looked up): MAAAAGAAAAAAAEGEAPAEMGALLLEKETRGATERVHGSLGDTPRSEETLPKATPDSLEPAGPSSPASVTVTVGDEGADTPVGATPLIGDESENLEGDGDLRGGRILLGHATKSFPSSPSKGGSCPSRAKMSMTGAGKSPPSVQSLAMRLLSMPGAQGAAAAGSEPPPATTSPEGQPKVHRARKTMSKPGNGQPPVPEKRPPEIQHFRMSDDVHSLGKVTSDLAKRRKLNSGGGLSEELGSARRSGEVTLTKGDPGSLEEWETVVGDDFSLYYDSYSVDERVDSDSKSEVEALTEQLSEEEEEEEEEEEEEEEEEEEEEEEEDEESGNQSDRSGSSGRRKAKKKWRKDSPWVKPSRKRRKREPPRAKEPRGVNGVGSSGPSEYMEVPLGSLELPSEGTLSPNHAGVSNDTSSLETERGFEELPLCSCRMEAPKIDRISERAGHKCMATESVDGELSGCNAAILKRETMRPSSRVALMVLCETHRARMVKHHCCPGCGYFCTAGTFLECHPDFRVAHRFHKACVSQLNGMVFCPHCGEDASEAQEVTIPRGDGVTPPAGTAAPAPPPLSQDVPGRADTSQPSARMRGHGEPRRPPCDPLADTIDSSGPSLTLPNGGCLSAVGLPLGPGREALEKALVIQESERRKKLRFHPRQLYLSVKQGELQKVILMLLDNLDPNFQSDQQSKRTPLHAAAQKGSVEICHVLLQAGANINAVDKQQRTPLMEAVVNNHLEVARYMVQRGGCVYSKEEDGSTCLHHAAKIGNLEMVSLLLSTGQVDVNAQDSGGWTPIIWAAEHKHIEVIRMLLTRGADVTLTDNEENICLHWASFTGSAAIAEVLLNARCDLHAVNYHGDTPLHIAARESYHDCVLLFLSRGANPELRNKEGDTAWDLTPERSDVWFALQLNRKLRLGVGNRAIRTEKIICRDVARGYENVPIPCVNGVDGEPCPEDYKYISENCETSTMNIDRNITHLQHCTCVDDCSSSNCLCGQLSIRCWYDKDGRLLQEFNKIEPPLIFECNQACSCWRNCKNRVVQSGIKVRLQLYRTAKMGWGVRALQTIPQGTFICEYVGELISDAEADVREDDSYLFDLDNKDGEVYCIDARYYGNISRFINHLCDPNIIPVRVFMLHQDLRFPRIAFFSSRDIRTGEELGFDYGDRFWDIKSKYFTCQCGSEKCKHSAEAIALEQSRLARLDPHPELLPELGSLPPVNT

Structure (SMILES) | Potency | activity, negative = inhibition
CCOc1ccccc1-c1nc(CN2CCCC2c2nccs2)c(C)o1 (stereo unspecified) | inconclusive: 79.4 µM [inhibitor, single point] | 
CCOC(=O)/C(=N/Nc1ccc(Cl)cc1)S(=O)(=O)c1ccccc1 |  | inconclusive: -63.2% [inhibitor]
COc1ccc(N2CCN(C(=O)CCC(=O)NNc3nc4ccccc4c4nc(C)nn34)CC2)cc1 | active: 10 µM and active: 22.4 µM | 
Cc1cc(C(=O)CSc2nc3ccccc3[nH]2)c(C)n1C |  | inconclusive: -91.8% [inhibitor]
Cc1cc(C)cc(NC(=O)c2oc3ccc4c(c3c2C)C(=O)CC(C)(C)O4)c1 | inactive | 
CSCCC(NS(=O)(=O)c1ccc(Cl)cc1)C(=O)OCC(=O)N1CCCc2ccccc21 (stereo unspecified) | inconclusive: 79.4 µM [inhibitor, single point] | 
Cc1ccc(OCCC(=O)OCC(=O)N2CCN(S(=O)(=O)c3ccc(C)cc3C)CC2)cc1 | inconclusive: 79.4 µM [inhibitor, single point] | 
O=C(O)c1[nH]c2ccccc2c1NS(=O)(=O)Cc1ccccc1 | inconclusive: 2.24 µM [inhibitor, partial curve, poor fit] | 
Fc1ccccc1COc1ccccc1CNCc1ccncc1 | inconclusive: 4.47 µM [inhibitor, single point] | 
COc1ccc(C2=NN(C(=O)CCC(=O)O)C(c3ccccc3OC)C2)cc1 (stereo unspecified) | inactive | 
O=C(NCc1ccc(F)cc1)C1CCCCN1S(=O)(=O)c1ccc(F)cc1 (stereo unspecified) | inactive | 
Cc1cc(NC(=O)CSc2ncnc3sc(C)c(C)c23)no1 | inactive | 
CC(C)(NO)/C(=N\O)c1ccc(Cl)cc1 | active: 10 µM | 
CCC(=O)N1CCc2cc(S(=O)(=O)CCC(=O)N3CCN(c4cccc(Cl)c4)CC3)ccc21 | inconclusive: 28.2 µM [inhibitor, partial curve, poor fit] | 
NC(=S)Nc1ncc(C(F)(F)F)cc1Cl |  | inconclusive: -90% [inhibitor]
COc1cc(CN(C)C(C)C(=O)Nc2ccc([N+](=O)[O-])cc2Cl)ccc1OC(F)F (stereo unspecified) | inconclusive: 25.1 µM [inhibitor, partial curve, poor fit] | 
CCOC(=O)c1cc(C)n(CC2CCC(C(=O)Nc3ccc(C)cc3)CC2)c1C (stereo unspecified) | inactive | 
O=C1CC2(CCN(C(=O)c3cccc([N+](=O)[O-])c3)CC2)Oc2ccccc21 |  | inconclusive: -54.7% [inhibitor] [at 2.33 µM]
CC(=Nc1ccccc1)c1sc2ccccc2c1O | inconclusive: 79.4 µM [inhibitor, single point] | 
O=C1CN(C(=O)c2ccc(Br)o2)C(c2ccccc2)c2cc(Cl)ccc2N1 (stereo unspecified) | active: 56.2 µM | 
CCN1CCN(CCNC(=O)C2CCCN(Cc3nc(-c4cccc(Cl)c4)oc3C)C2)CC1 (stereo unspecified) | inconclusive: 89.1 µM [inhibitor, single point] | 
CC(C)NC(=O)CSc1ccccc1C(=O)N1CCN(S(=O)(=O)Cc2ccccc2)CC1 | inconclusive: 56.2 µM [inhibitor, partial curve, poor fit] | 
CCC(=O)NCC(c1cccs1)N1CCOCC1 (stereo unspecified) | inconclusive: 39.8 µM [inhibitor, single point] | 

Structure (SMILES) | Potency | activity, negative = inhibition
CCCn1c(N2CCN(CC(=O)c3c[nH]c4ccccc34)CC2)nc2c1c(=O)[nH]c(=O)n2C | inconclusive: 39.8 µM [inhibitor, single point] | 
O=C(Nc1cc(Cl)ccc1Cl)Nn1cnnc1 | inactive | 
COC(=O)Cn1c(CN2CCC(Cc3ccccc3)CC2)nc2c1c(=O)n(C)c(=O)n2C | inconclusive: 56.2 µM [inhibitor, partial curve, poor fit] | 
COc1ccc(NC(=O)Nc2cc(C)ccc2F)cc1 | inconclusive: 89.1 µM [inhibitor, single point] | 
COc1ccc(C(=O)NCC(=O)NCC(=O)OCC(=O)C(C)(C)C)cc1 | inactive | 
N#Cc1nc(Cc2ccccc2)oc1NCCN1CCOCC1 | inconclusive: 50.1 µM [inhibitor, partial curve] | 
Cc1nonc1C(=O)N/N=C/c1ccc(O)c(O)c1 | active: 44.7 µM | 
O=C1c2ccccc2-c2cccc(NS(=O)(=O)c3ccc(C(F)(F)F)cc3)c21 | inconclusive: 10 µM [inhibitor, partial curve] | 
CCC1(c2ccccc2)NC(=O)N(CC(=O)Nc2cc(S(=O)(=O)N3CCOCC3)ccc2OC(C)C)C1=O (stereo unspecified) | inconclusive: 63.1 µM [inhibitor, partial curve, poor fit] | 
Cc1cccc(C2CC(c3ccc(Br)cc3)Nc3nc(N)nn32)c1 (stereo unspecified) | inconclusive: 79.4 µM [inhibitor, single point] | 
COc1ccc(-c2csc(NNC3=NCCCCC3)n2)cc1 | active: 10 µM | 
CCN(C(=O)CN1C(=O)COc2ccc(S(=O)(=O)N3CCOCC3)cc21)c1cccc(C)c1 | inactive | 
O=C(NCCc1csc(-c2cccc(F)c2)n1)c1ccccc1C(F)(F)F | inactive | 
CC(=O)c1cccc(NC2c3ccccc3C(=O)N2Cc2ccc3c(c2)OCO3)c1 (stereo unspecified) | inconclusive: 70.8 µM [inhibitor, single point] | 
N#Cc1c(N2C(=O)c3ccc(C(=O)O)cc3C2=O)sc2c1CCCC2 | inactive | 
CCN(CC)C(=O)CC(c1ccc(N(C)C)cc1)c1c(OC)cc(OC)c2ccc(=O)oc12 (stereo unspecified) | inconclusive: 1.41 µM [inhibitor, single point] | 
O=[N+]([O-])c1cccc(CN2CCN(c3ncccn3)CC2)c1 | active: 11.2 µM | 
CCN(CC)CCC/C(=N\O)C(O)(c1ccccc1)c1ccccc1 | inconclusive: 14.1 µM [inhibitor, partial curve, poor fit] | 
Cc1ccc(N(CC(=O)N2CCCC2)S(C)(=O)=O)c(C)c1 | inactive | 
CCCc1cc(N2CCN(c3ccccc3F)CC2)n2cnnc2n1 | inactive | 
CCOC(=O)C(=O)/C(C#N)=C/Nc1ccc(F)cc1 | active: 35.5 µM | 
CCCCN(CCCC)S(=O)(=O)c1ccc(NC(=O)Cc2cccs2)cc1 | inactive | 
COc1cc(CCC(=O)OCC(=O)NCC2CCCCC2)cc(OC)c1OC | inconclusive: 89.1 µM [inhibitor, single point] | 
